# From publication PMC4336329 (PLoS ONE, 2015)
# In all, about 310,000 compounds went through this assay and about 14,000 (4.5%) showed an effect of 50% or more. The effect is printed as a negative number. Some of the results follow.
# Biological target: human ether-à-go-go-related gene (hERG) potassium channel (human, UniProt Q12809)
# Assay: primary screen, population patch clamp on CHO cells stably expressing hERG
# 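Further: peak tail current of the secondary pulse compared with the same well before compound.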
# Chain of human ether-à-go-go-related gene (hERG) potassium channel (Q12809 whole entry, looked up): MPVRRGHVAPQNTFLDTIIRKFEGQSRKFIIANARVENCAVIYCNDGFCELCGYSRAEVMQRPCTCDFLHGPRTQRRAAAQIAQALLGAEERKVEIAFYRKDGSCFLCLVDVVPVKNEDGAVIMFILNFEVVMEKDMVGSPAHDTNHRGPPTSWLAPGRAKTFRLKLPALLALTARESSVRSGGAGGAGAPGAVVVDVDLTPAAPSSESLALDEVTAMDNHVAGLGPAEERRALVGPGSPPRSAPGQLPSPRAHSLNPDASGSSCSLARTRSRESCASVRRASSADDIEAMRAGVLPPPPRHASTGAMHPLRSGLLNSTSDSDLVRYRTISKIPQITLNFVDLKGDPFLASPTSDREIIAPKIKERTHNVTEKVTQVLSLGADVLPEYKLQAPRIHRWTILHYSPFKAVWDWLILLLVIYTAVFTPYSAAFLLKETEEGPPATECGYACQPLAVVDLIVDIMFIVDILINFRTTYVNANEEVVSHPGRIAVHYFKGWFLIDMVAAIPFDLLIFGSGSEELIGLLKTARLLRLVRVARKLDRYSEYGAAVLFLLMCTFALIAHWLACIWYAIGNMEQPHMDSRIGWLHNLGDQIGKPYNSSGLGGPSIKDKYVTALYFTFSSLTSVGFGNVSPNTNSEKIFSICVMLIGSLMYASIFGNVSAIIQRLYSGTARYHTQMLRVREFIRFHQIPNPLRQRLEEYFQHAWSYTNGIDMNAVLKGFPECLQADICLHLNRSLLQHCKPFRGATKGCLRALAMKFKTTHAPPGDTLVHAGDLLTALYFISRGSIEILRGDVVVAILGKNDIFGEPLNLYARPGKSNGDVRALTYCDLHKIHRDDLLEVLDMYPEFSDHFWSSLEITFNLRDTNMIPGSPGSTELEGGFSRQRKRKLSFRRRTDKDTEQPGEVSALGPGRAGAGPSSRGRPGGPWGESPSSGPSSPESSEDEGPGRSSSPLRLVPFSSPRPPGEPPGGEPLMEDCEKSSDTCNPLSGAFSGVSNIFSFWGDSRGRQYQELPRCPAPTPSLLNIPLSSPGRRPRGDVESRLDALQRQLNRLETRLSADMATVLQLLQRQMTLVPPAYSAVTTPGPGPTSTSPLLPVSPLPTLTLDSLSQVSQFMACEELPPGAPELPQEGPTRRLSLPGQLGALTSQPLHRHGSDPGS
row,SMILES,"hERG current change (%, negative = inhibition) at 10uM [%]"
1,CCn1c(-c2cc(-c3ccccc3)sc2N)n[nH]c1=S,11.5
2,CCc1ccc(-c2c(C)sc(NC(C)=O)c2C(N)=O)cc1,-12
3,CC(C)c1ccc(NC(=O)/C(C#N)=C/c2ccncc2)cc1,-28.6
4,COc1ccc(NS(=O)(=O)c2c(C(=O)N3CCCCCC3)c(C)n(C)c2C)cc1,9.93
5,COc1ccc(NC(=O)c2nc[nH]c2C(=O)N2CCN(c3ccccc3)CC2)cc1,3.64
6,COc1cccc(CNC(=O)C(C(=O)NCc2cccc(OC)c2)c2ncc(C(F)(F)F)cc2Cl)c1,32.4
7,C1=C(CCNC2=NCCCCC2)CCCC1,2.12
8,Cc1ccc(NNC(=O)c2ccc(Cl)cc2)nn1,15.8
9,C=CCc1c(Cl)nc(C)nc1NCc1ccccc1,15.1
10,COc1ccc(CCNC2CCCCC2)cc1.O=C(O)C(=O)O,-15.9
11,COC(=O)c1cc(=O)n2c(sc3ccccc32)c1C#N,2.86
12,O=C1CSC2N1CCNC21CCCCC1 (centres unmarked),6.94
13,CC(=O)NC(Cc1ccccc1)C(=O)N1CCN(C(=S)NCC(C)C)CC1 (centres unmarked),-7.76
14,O=c1[nH]c(-c2ccccc2)c(-c2ccccc2)o1,6.13
15,Cc1nc2n(COCCO)cnn2c(=O)c1Br,14.6
16,Cc1cc(C)nc(NC(=O)c2cnc3sccn3c2=O)n1,0.473
17,Cc1cccc(NC(=O)/C=C/c2ccc([N+](=O)[O-])s2)c1,1.65
18,CCOc1cccc(NC(=O)C2CC(=O)NC(=Nc3ccccc3)S2)c1 (centres unmarked),18.7
19,COc1ccc(N=C2NN=C(c3c(C)[nH]c4ccccc34)CS2)cc1.Cl,15.3
20,CCOC(=O)C1(CCC(C)C)CC(CSc2nc3ccccc3[nH]2)OC1=O (centres unmarked),-25.2
21,Cc1ccc(/C=C2/CCc3c([nH]c4ccccc34)C2=O)cc1,26.8
22,OCC1(CC2CCCCO2)CCN(Cc2cccc(O)c2)CC1 (centres unmarked),35.9

row,SMILES,"hERG current change (%, negative = inhibition) at 10uM [%]"
1,C=C[C@H]1[C@H](OC2OC(CO)C(O)C(O)C2O)OC=C(C(=O)OC)[C@H]1C[C@H]1CC(=O)C[C@H](CC(=O)CCc2ccc(O)cc2)O1 (some centres unmarked),-18.1
2,CN1CCN(c2ccc([N+](=O)[O-])c(N/N=C3\CN4CCC3CC4)c2)CC1,5.51
3,Cc1cc2nc3n(c2cc1C)CCCN3,-7.22
4,C=CCn1c(=O)[nH]c2cc(C(=O)N3CCN(c4cc(C)ccc4C)CC3)ccc2c1=O,2.61
5,O=C(O)[C@@H]1CCCN1C(=O)COc1ccc2c3c(c(=O)oc2c1)CCC3,2.17
6,COC(CN(C(=O)CCl)C(C(=O)NC1CCCCC1)c1ccccc1C)OC (centres unmarked),1.63
7,O=C(NCc1ccccc1F)C1CC(=O)N(c2ccc3c(c2)OCCO3)C1 (centres unmarked),-2.83
8,O=C(NCc1ccc(F)cc1)C1CCN(S(=O)(=O)c2ccc(Cl)cc2)CC1,13
9,CC(=O)O/N=C(/c1nonc1N)N1CCN(c2ccc([N+](=O)[O-])cc2Cl)CC1,-33.9
10,N#Cc1nc(Cc2cccc3ccccc23)oc1NCc1ccco1,-1.59
11,COc1ccccc1C(=O)N/C(=C/c1ccccc1)C(=O)NC(CCSC)C(=O)O (centres unmarked),7.6
12,COC(=O)c1sccc1NC(=O)/C=C/c1c(Cl)cccc1Cl,14
13,CN1CCN(C(=O)C2=C[C@H](c3csc4ccccc34)C[C@H](OCc3ccc(CO)cc3)O2)CC1,-27
14,Nc1nc(-c2ccc3ccccc3c2)c(C2(O)C(=O)Nc3c(Br)cc(F)cc32)s1 (centres unmarked),8.98
15,Cc1c(NC(=O)c2cc(-c3ccc4c(c3)OCO4)on2)c(=O)n(-c2ccccc2)n1C,-4.5
16,Cc1occc1C(=O)Nc1cc(S(=O)(=O)N2CCOCC2)ccc1OC(C)C,1.13
17,COc1cc(C(=O)O/N=C(\N)c2ccc([N+](=O)[O-])cc2)cc(OC)c1OC,-45.2
18,O=c1[nH]c(=S)n(Cc2ccco2)c(O)c1C=NCc1cccs1,-20.3
19,c1ccc2c(-c3nnc4n3CCCCC4)c[nH]c2c1,3.69
20,COc1cc(NC(=O)CNc2ccc(Cl)c(S(=O)(=O)N3CCOCC3)c2)cc(OC)c1,-1.36
21,O=C(CN(C(=O)Cn1nnc(-c2ccc(F)cc2)n1)c1ccc(F)c(Cl)c1)NCC1CCCO1 (centres unmarked),-14.4
22,CNS(=O)(=O)c1ccc(C(=O)NCC(=O)NCCC(c2ccccc2)c2ccccc2)cc1,-24.5

row,SMILES,"hERG current change (%, negative = inhibition) at 10uM [%]"
1,COc1cc([N+](=O)[O-])cc(/C=N/NC(=O)Cn2cncn2)c1O,5.88
2,Cn1c(=O)c2c([nH]c(=O)n2C)n(Cc2ccccc2)c1=O,19.3
3,CCN(CC)S(=O)(=O)c1cccc(C(=O)NCC2CCCCC2)c1,-10.7
4,Cc1c(C(=O)N2CCN(c3ccccn3)CC2)oc2c1C(=O)CC(C)(C)C2,-13.2
5,O=C(COC(=O)Cn1cnc2ccccc2c1=O)Nc1ccc2c(c1)OCO2,-1.05
6,O=C(N/N=C/c1ccccn1)c1sc2ccccc2c1Cl,-21.6
7,CCOc1ccc(C(=O)NCC(=O)Nc2ccncc2)cc1OCC,4.58
8,Cc1nc(NC2CCCCC2)c2nnn(Cc3ccccc3Cl)c2n1,8.09
9,CCn1c(Cn2nnc(-c3ccccc3)n2)nnc1SCC(=O)N1CCOCC1,-8.91
10,COc1ccc(/C=N/NC(=O)CSc2ccccn2)cc1OC,2.42
11,Cc1cc(NC(=O)C2COc3ccccc3O2)no1 (centres unmarked),-0.48
12,Cc1ccc(S(=O)(=O)N2CCN(C(=O)COc3ccc(NC(=O)c4ccco4)cc3)CC2)cc1,8.3
13,Cc1ccc(C)c(/C(O)=C2\C(=O)C(=O)N(CCCn3ccnc3)C2c2cccnc2)c1 (centres unmarked),3.99
14,O=C(CCNS(=O)(=O)c1cccs1)Nc1nccs1,14.5
15,CC(=O)Nc1ccccc1-c1nnn(CC(=O)Nc2ccc3c(c2)OCCO3)n1,13.4
16,O=C(Cc1ccccc1)NC1CCN(C(=O)c2ccc([N+](=O)[O-])cc2)CC1,-47.7
17,COC(=O)c1cc(C)sc1NC(=O)CN1CCN(C(=O)c2ccco2)CC1,-30
18,Cc1onc(-c2c(Cl)cccc2Cl)c1C(=O)NCc1ccccn1,2.34
19,CCOC(=O)N1CCN(c2cc(C)c([N+](=O)[O-])cc2F)CC1,-8.16
20,Cn1nccc1C(=O)N1CCCC(N2CCN(c3cccc(C(F)(F)F)c3)CC2)C1 (centres unmarked),-20.3
21,CCCN1CCN(CCCNC(=O)c2cc3c(s2)-c2c(C)cccc2OC3)CC1,-85.2
22,O=C(COC(=O)c1ccc([N+](=O)[O-])cc1)Nc1ccc(Cl)cn1,-7.1

row,SMILES,"hERG current change (%, negative = inhibition) at 10uM [%]"
1,CCCCNC(=O)NS(=O)(=O)c1cnccc1Sc1ccc(Cl)cc1,12.1
2,N#Cc1c(-c2ccccc2)nc(SCc2ccc([N+](=O)[O-])cc2)[nH]c1=O,5.07
3,CCOC(=O)Cn1c(CN(Cc2ccccc2)Cc2ccccc2)nc2c1c(=O)[nH]c(=O)n2C,-8.22
4,Cc1nnc(SCC(=O)N2c3ccccc3CC2C)s1 (centres unmarked),-54.2
5,O=C(c1ccco1)N1CCCC(c2nc3c(nnn3Cc3cccc(Cl)c3)c(=O)[nH]2)C1 (centres unmarked),-54.5
6,O=C(NCCOc1ccccc1)c1ccccc1NC(=O)C1CCCO1 (centres unmarked),3.82
7,CC(=O)c1ccc(C(=O)NC2CC(C)(C)Cc3c2cnn3-c2ccccc2)cc1 (centres unmarked),-21.8
8,COc1cc2ncc(C(=O)c3ccccc3)c(N3CCN(Cc4ccccc4)CC3)c2cc1OC,-12.9
9,COc1ccccc1CN(C)CC(=O)Nc1ccccc1-c1ccccc1,17.4
10,CCOc1c(O)ccc(/C=C2\SC(=S)NC2=O)c1[N+](=O)[O-],15
11,CCC(=O)Nc1ccc(NC(=S)NC(=O)/C=C/c2ccco2)cc1,2.85
12,CCOC(=O)c1c(NC(=O)c2c(N)n(CCCOC)c3nc4ccccc4nc23)sc2c1CCCC2,-0.19
13,CN1CCN(C(=O)C23CC4CC(C2)CC(c2ccccc2)(C4)C3)CC1.Cl,4.85
14,CCOc1ccc(N(CC)C(=O)CCS(=O)(=O)c2cccc3nonc23)cc1,-4.92
15,CN(CC(=O)Nc1ccc(F)cc1)C(=O)c1cc([N+](=O)[O-])ccc1N1CCOCC1,-24.9
16,O=C(Nc1cccnc1)C1CCN(S(=O)(=O)c2cccc3nonc23)CC1,-0.862
17,CC(C)NS(=O)(=O)c1ccc(OCC(=O)N2CCCC2)cc1,-12.9
18,Cc1[nH]nc2c1C(c1ccsc1C)C(C#N)=C(N)O2 (centres unmarked),2.25
19,COc1cc(NC(=S)NC(=O)c2ccccc2F)ccc1NC(=O)c1cccs1,1.66
20,Cl.O=C(CCc1ccc(S(=O)(=O)N2CCOCC2)cc1)N1CCN(Cc2ccc3c(c2)OCO3)CC1,-34.3
